Assay results reported in paper PMC4336329 (PLoS ONE, 2015).
Out of some 310,000 compounds screened, about 14,000 (4.5%) showed an effect of 50% or more. Effects have a minus sign here. The list shows a part of the results.

The compounds below were run against human ether-à-go-go-related gene (hERG) potassium channel (human, UniProt Q12809) (assay: primary screen, population patch clamp on CHO cells stably expressing hERG).
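Also: peak tail current of the secondary pulse compared with the same well before compound.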

Chain of human ether-à-go-go-related gene (hERG) potassium channel (Q12809 whole entry, looked up): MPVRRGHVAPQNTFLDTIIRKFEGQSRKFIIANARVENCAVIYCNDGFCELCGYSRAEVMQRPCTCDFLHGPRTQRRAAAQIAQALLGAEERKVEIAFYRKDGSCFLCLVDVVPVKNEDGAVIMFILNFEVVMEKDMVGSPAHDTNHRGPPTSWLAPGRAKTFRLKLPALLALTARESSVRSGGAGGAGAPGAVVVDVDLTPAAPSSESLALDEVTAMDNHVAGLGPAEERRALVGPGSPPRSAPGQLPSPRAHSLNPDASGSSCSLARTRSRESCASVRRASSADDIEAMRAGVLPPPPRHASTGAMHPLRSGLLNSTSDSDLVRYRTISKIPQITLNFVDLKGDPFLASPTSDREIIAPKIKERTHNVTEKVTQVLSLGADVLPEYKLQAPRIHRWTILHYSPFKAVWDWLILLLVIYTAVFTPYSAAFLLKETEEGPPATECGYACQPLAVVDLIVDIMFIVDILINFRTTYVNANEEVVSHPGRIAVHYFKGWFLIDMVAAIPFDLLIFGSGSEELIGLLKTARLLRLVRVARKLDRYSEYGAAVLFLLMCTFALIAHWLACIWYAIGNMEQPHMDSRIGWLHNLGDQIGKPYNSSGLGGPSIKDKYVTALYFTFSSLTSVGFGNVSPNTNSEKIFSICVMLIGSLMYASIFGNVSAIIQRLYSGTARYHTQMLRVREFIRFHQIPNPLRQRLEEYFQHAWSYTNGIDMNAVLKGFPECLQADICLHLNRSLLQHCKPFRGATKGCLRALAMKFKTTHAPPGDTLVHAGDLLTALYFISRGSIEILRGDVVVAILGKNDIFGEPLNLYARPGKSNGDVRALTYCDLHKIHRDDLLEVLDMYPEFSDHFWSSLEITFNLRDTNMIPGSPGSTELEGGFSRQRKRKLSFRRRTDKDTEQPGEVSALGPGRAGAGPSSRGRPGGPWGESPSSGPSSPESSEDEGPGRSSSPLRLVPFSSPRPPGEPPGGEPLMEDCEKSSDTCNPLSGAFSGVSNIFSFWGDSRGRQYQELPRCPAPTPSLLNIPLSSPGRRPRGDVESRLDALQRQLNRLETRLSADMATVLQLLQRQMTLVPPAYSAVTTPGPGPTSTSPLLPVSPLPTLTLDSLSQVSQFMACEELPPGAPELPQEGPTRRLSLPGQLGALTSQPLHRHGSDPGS

Going from `Cc1ccc(CNC(=O)CCS(=O)(=O)c2cccc3nsnc23)cc1` to `Cc1ccc(CCNC(=O)c2nn(C)c3c2CS(=O)(=O)c2ccccc2-3)cc1`, the “hERG current change (%, negative = inhibition) at 10uM” value falls from 8.67% to -39.7%.

First: CC1CCCCN1C(=O)C12CCC(C)(C(=O)C1)C2(C)C (centres unmarked)
Second: CCOc1ccccc1C(=O)N1CCCCC1C (centres unmarked)
The “hERG current change (%, negative = inhibition) at 10uM” value of the first is lower: -12.2% for the first, 17.6% for the second.

First: CCc1ccc(C(O)(c2ccccc2OC)C(CN2CCOCC2)c2ccccc2)cc1.Cl (centres unmarked)
Second: O=C(c1coc(=O)c2ccccc12)N1CCN(Cc2ccccc2)CC1
The “hERG current change (%, negative = inhibition) at 10uM” value of the first is higher: -16.5% for the first, -51.2% for the second.

Going from `O=c1[nH]c(=S)n(C2CC2)c(O)c1/C=N/Nc1cccc2ccccc12` to `CC1CCCN(Cc2c(C(=O)N3CCc4ccccc4C3)nc3ccc(Cl)cn23)C1` (centres unmarked), the “hERG current change (%, negative = inhibition) at 10uM” value falls from 2.93% to -34.5%.

Going from `CCOC(=O)c1sc2nc(C)cc(C)c2c1N` to `CCOC(=O)c1c(NC(=O)CC2SC(N)=NC2=O)sc2c1CCCC2` (centres unmarked), the “hERG current change (%, negative = inhibition) at 10uM” value rises from -8.58% to -4.02%.

First: COc1ccc(OC)c(S(=O)(=O)Nc2cc3c(cc2N2CCCC2)n(C)c(=O)c(=O)n3C)c1
Second: COc1ccc(S(=O)(=O)Nc2c(C)n(C)n(-c3ccccc3)c2=O)cc1C(=O)O
The “hERG current change (%, negative = inhibition) at 10uM” value of the first is lower: -50.7% for the first, 17.2% for the second.

Compared with `CCC(Sc1ccc(Cl)cc1)C(=O)Nc1nnc(-c2cccc([N+](=O)[O-])c2)s1` (centres unmarked), `CCCN1C(=O)c2ccccc2NC1c1ccc(Cl)cc1` (centres unmarked) is lower in “hERG current change (%, negative = inhibition) at 10uM” value: 10.3% for the first, -7.23% for the second.

Compared with `CCCc1cc(=O)c2c(O)ccc(OC)c2o1`, `COc1ccc(CCNC(=O)CSCc2ccc(Br)cc2)cc1OC` is lower in “hERG current change (%, negative = inhibition) at 10uM” value: 5.18% for the first, 4.56% for the second.

Going from `Fc1cccc2sc(Nc3nc4cc5c(cc4s3)OCO5)nc12` to `COCCCn1c(=N)c(C(=O)NCc2ccc3c(c2)OCO3)cc2c(=O)n3ccccc3nc21`, the “hERG current change (%, negative = inhibition) at 10uM” value falls from 20.3% to -83.5%.

Going from `CC(C)(C)NC(=O)C(c1ccsc1)N(CCc1ccccc1)C(=O)Cn1nnc2ccccc21` (centres unmarked) to `Cc1sc(NC(=O)c2ccccc2)c(C(=O)c2ccccc2)c1C`, the “hERG current change (%, negative = inhibition) at 10uM” value falls from 7.45% to 3.34%.

Compared with `COC(=O)C(CCSC)NC(=O)CNS(=O)(=O)c1ccc(Br)cc1` (centres unmarked), `COC(=O)CNC(=O)c1sc2ncn(CC(=O)Nc3ccc(C)c(Cl)c3)c(=O)c2c1C` is higher in “hERG current change (%, negative = inhibition) at 10uM” value: -12.1% for the first, -0.953% for the second.

First: COC(=O)c1sccc1NC(=O)c1c(C)cc(=O)oc1C
Second: Cc1ccc(NC(=S)Nc2ccc3[nH]c(=O)[nH]c3c2)cc1C
The “hERG current change (%, negative = inhibition) at 10uM” value of the first is lower: 5.16% for the first, 17.1% for the second.

Going from `FC(F)(F)c1ccc(Cl)c(NC2=NCCCCC2)c1` to `Cc1cc2c(s1)CCCCC(=O)N2`, the “hERG current change (%, negative = inhibition) at 10uM” value falls from 13.4% to 5.42%.

First: Cc1ccc(-c2noc(CCC(=O)NCCN3CCOCC3)n2)cc1
Second: CCOC(=O)c1[nH]c2ccc(F)cc2c1NC(=O)CCN1CCOCC1
The “hERG current change (%, negative = inhibition) at 10uM” value of the first is higher: 4.65% for the first, 3.03% for the second.

Compared with `NC(=O)C1CCN(C(=O)COc2ccc3ccc(=O)oc3c2)CC1`, `O=C(c1cc2c(=O)oc3ccccc3c2s1)N1CCOCC1` is lower in “hERG current change (%, negative = inhibition) at 10uM” value: 3.48% for the first, -0.51% for the second.

First: CC(Sc1ccsc1[N+](=O)[O-])C(=O)N1CCN(c2ccccn2)CC1 (centres unmarked)
Second: CCOc1ccc(NC(=O)c2ccc(F)c(S(=O)(=O)N3CCN(c4ccccn4)CC3)c2)cc1
The “hERG current change (%, negative = inhibition) at 10uM” value of the first is lower: -1.67% for the first, 0.277% for the second.

Compared with `COC(=O)C1=CN(C(C)c2ccccc2)C=C(C(=O)OC)C1c1cc(OC)c(OC)c(OC)c1` (centres unmarked), `Cc1nnc(NC(=O)CSc2nnc(Cc3cccn3C)n2-c2ccccc2)s1` is higher in “hERG current change (%, negative = inhibition) at 10uM” value: -10.1% for the first, 1% for the second.

`O=C(Nc1cccnc1)c1ccco1` and `O=C(Nc1cc(Br)ccc1O)C1CC(c2ccccc2Cl)=NO1` (centres unmarked) are the same in “hERG current change (%, negative = inhibition) at 10uM” value: 19.5% for the first, 19.5% for the second.

Compared with `NNC(=O)CC12CC3CC(C1)CC(n1ncnn1)(C3)C2`, `CC(=O)NC1=NN(C(C)=O)C(C)(CC(=O)OC(C)(C)C)S1` (centres unmarked) is higher in “hERG current change (%, negative = inhibition) at 10uM” value: -15.1% for the first, 8.32% for the second.

First: C=CCN(c1ccccc1)S(=O)(=O)c1cccc(C(=O)NNC(=O)c2ccccc2O)c1
Second: N=c1ncn(Cc2ccccc2)c2nc(SCCOc3ccccc3)[nH]c12
The “hERG current change (%, negative = inhibition) at 10uM” value of the first is higher: -3.7% for the first, -6.87% for the second.

First: COc1ccc(NS(=O)(=O)N2CCOCC2)cc1
Second: Cc1ccc(-c2csc3nc4cc(C(N)=O)ccc4c(=O)n23)cc1
The “hERG current change (%, negative = inhibition) at 10uM” value of the first is higher: 13.8% for the first, -4.13% for the second.

Compared with `Cc1cc2nc(C(C)(C)C)cc(N)n2n1`, `CC1(C)N=C(/C=N/O)C=[N+]1[O-]` is higher in “hERG current change (%, negative = inhibition) at 10uM” value: 0.227% for the first, 6.34% for the second.
